The text below walks through data of patent US10988531B2, “Conjugates comprising cell-binding agents and cytotoxic agents” (ImmunoGen, Inc., priority 2014, dated 2021).

Data set [1] has as its target T1, CD123 (Homo sapiens, UniProt P26951).
T1 sequence (P26951 19-378): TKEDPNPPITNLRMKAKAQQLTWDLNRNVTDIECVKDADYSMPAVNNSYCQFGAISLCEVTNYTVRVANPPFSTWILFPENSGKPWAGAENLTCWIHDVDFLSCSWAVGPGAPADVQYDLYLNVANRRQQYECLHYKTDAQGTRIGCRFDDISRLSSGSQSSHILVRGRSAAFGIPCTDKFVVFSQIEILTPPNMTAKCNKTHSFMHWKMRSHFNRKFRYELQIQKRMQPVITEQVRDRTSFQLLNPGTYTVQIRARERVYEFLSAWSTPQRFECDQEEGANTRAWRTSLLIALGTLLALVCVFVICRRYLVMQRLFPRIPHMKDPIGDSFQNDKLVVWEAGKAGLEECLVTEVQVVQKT
Briefly: target (CD123) binding of conjugate.

Data set [2] deals with HNT-34 cells. In words: in vitro cytotoxicity (WST-8) on HNT-34 cells. The data set is classed as cell-based. To be noted: HNT-34 cells (AML). As for the experimental part:
(§1) The ability of site-specific conjugates of huCD123-6 with the various IGN compounds (huCD123-6Rv1.1S2-SeriMab-D8) to kill cells that express CD123 on their cell surface was compared to that of the lysine-linked conjugates containing the matching antibody and the payload (huCD123-6Rv1.1-D2) using in vitro cytotoxicity assays. The cytotoxicity assays were carried out and analyzed as described below.
(§2) The cell lines were cultured in culture medium as recommended by the cell supplier (ATCC or DSMZ). The cells, 2,000 to 10,000 in 100 μL of the culture medium, were added to each well of flat bottom 96-well plates. To block Fc receptors on the cell surface, the culture medium was supplemented with 100 nM chKTI antibody (an antibody of the same isotype). Conjugates were diluted into the culture medium using 3-fold dilution series and 100 μL were added per well. […] Then the relative number of viable cells in each well was determined using the WST-8 based Cell Counting Kit-8 (Dojindo Molecular Technologies, Inc., Rockville, Md.). The apparent surviving fraction of cells in each well was calculated by first correcting for the medium background absorbance, and then dividing each value by the average of the values in the control wells (non-treated cells). […]
On the technique in general: Tetrazolium assays rely on reduction of a dye to a coloured formazan, in cell work by metabolically active cells.

In data set [3] the test system is SHI-1 cells. Briefly: in vitro cytotoxicity (WST-8) on SHI-1 cells. The data set is classed as cell-based. To be noted: SHI-1 cells (AML). As for the experimental part: as §1, §2
The subject of data set [4] is MOLM-1 cells. Briefly: in vitro cytotoxicity (WST-8) on MOLM-1 cells. The data set is classed as cell-based. To be noted: MOLM-1 cells (CML). As for the experimental part:
as §1, §2

For data set [5], the system named is NCI-H2110 NSCLC xenografts. Briefly: antitumor activity against NCI-H2110 NSCLC xenografts in SCID mice. The data set is classed as in vivo. As for the experimental part:
Female CB.17 SCID mice, 6 weeks old, were received from Charles River Laboratories. Mice were inoculated with 1×10^7 NCI-H2110 tumor cells suspended in 0.1 ml 50% matrigel/serum free medium by subcutaneous injection in the right flank. When tumor volumes reached approximately 100 mm^3 (day 7 post inoculation), animals were randomized based on tumor volume into 4 groups of 6 mice each. Mice received a single IV administration of vehicle control (0.2 ml/mouse) or huMOV19NTS#2-Linker1-Compound A ([6], scheme 1) conjugate at 10, 25 or 50 g/kg based on compound A concentration on day 1 (day 8 post inoculation).
Tumor size was measured twice to three times weekly in three dimensions using a caliper. […] A mouse was considered to have a partial regression (PR) when tumor volume was reduced by 50% or greater, complete tumor regression (CR) when no palpable tumor could be detected. Tumor volume was determined by StudyLog software.
Tumor growth inhibition (T/C Value) was determined using the following formula: T/C (%)=Median tumor volume of the treated/Median tumor volume of the control×100.
Tumor volume was determined simultaneously for treated (T) and the vehicle control (C) groups when tumor volume of the vehicle control reached predetermined size of 1000 mm^3. The daily median tumor volume of each treated group was determined, including tumor-free mice (0 mm^3). […]

The test system of data set [6] is KB cells. In words: in vitro cytotoxicity (WST-8) on KB cells. The data set is classed as cell-based. As for the experimental part: 100 μl/well of each ADC was diluted in RPMI-1640 (Life Technologies) supplemented with heat-inactivated 10% FBS (Life Technologies) and 0.1 mg/ml gentamycin (Life Technologies) in a 96-well plate (Corning, flat bottom) at starting concentrations of 3.5×10^−9 M to 3.5×10^−8 M in triplicate and serially diluted 3-fold in media above at ambient temperature. KB cells (buccal epithelial tumor), grown in EMEM (ATCC) supplemented with heat-inactivated 10% FBS (Life Technologies) and 0.1 mg/ml gentamycin (Life Technologies), were washed once in PBS and removed with 0.05% trypsin-EDTA (Life Technologies). Other cells tested were NCI-H2110 (NSCLC) and T47D (breast epithelial) grown in RPMI-1640 (LifeTechnologies) supplemented with heat-inactivated 10% FBS (Life Technologies) and 0.1 mg/ml gentamycin (Life Technologies). T47D media also was supplemented with 0.2 IU/ml bovine insulin. All cells were resuspended in growth media (see above) to neutralize trypsin and counted on a Coulter counter. […] Total volume is 200 μl/well. After incubation, cell viability was analyzed by addition of 20 μl/well WST-8 (Dojindo) and allowed to develop for 2 hr. Absorbance was read on a plate reader at 450 and 620 nm. Absorbances at 620 nm were subtracted from absorbances at 450 nm. Background in wells containing media only was further subtracted from corrected absorbances and surviving fraction (SF) of untreated cells was calculated in Excel. An XY graph of ADC concentration (M) vs. SF was created using Graph Pad Prism.
In vitro potency of SeriMab-D8 conjugate (huMOV19-NTS#2-SeriMab-D8) was tested on KB cells (FIG. 26A), Ishikawa cells (human endometrial adenocarcinoma cells) (FIG. 26B), and HEC-1B cells (human endometrial adenocarcinoma cells) (FIG. 26C) using assay protocols similar to that described in Example 8.

The nature of data set [7]: in vivo stability of oxime linkage, affinity capture LC-MS of mouse plasma. To be noted: CD-1 mice, 10 mg/kg. As for the experimental part: Commercially available xMag-Streptavidin Microparticles (Biochain, CA) were washed with washing buffer (50 mM Tris. HCl, 0.15 M NaCl, pH 8.0) twice and resuspended in the same buffer to their original volume. Biotinylated Fc-FRα (2.6 Biotin/Fc-FRα; ˜114 μg) was then added to the streptavidin particles (200 μL) and rotated at room temperature for 2 h. The beads were washed 3 times with washing buffer and re-suspended to their original volume in washing buffer with 0.4% Tween 20.
Plasma samples were collected from CD-1 mice dosed with 10 mg/kg huMOV19-NTS#2-aminooxy-acetyl-MayNMA conjugate at 2 min, 1 day, and 3 days, and was added to streptavidin-biotin-FRα-Fc particles (200 μL per sample) along with final 20% washing buffer and 0.2% Tween-20. After gentle shaking at room temperature for 2 h, the resin was washed 3 times with 1 mL washing buffer and eluted using 50 μL of 0.1 M citric acid/sodium citrate, pH 3.0, 50% ethylene glycol. […] HCl, pH 8.5, and then analyzed by SEC or SEC-LC/MS as described previously (Lazar, Wang et al. 2005).

B1: huCD123-6Rv1.1S2-SeriMab-D8 (conjugate)
heavy: SFQLVQSGAEVVKPGASVKMSCKASGYTFTSSIMHWMKQKPGQGLEWIGYIKPYNDGTKYNQKFQGKATLTSDKSSSTANMELNSLTSEDSAVYYCAREGGNDYYDTMDYWGQGTSVTVSS[human IgG1 constant region left out here]
light: DIQMTQSPSSMSASVGERVTITCRASQDINSYLSWFQQKPGKSPKTLIYRVNRLVDGVPSRFSGSGSGQDYSLTISSLEPEDMGIYYCLQYDAFPYTFGQGTKLEIKRTVAAPSVFIFPPSDEQLKSGTASVVCLLNNFYPREAKVQWKVDNALQSGNSQESVTEQDSKDSTYSLSSTLTLSKADYEKHKVYACEVTHQGLSSPVTKSFNRGEC
In the case of B1, the “target (CD123) binding” value in data set [1] is given as “maintained target (CD123) binding”.

B2: huCD123-6Rv1.1-D2 (conjugate)
heavy: QFQLVQSGAEVVKPGASVKMSCKASGYTFTSSIMHWMKQKPGQGLEWIGYIKPYNDGTKYNQKFQGKATLTSDKSSSTANMELNSLTSEDSAVYYCAREGGNDYYDTMDYWGQGTSVTVSS[human IgG1 constant region left out here]
light: DIQMTQSPSSMSASVGERVTITCRASQDINSYLSWFQQKPGKSPKTLIYRVNRLVDGVPSRFSGSGSGQDYSLTISSLEPEDMGIYYCLQYDAFPYTFGQGTKLEIKRTVAAPSVFIFPPSDEQLKSGTASVVCLLNNFYPREAKVQWKVDNALQSGNSQESVTEQDSKDSTYSLSSTLTLSKADYEKHKVYACEVTHQGLSSPVTKSFNRGEC
A word on the IC50: it is the point on the concentration scale where inhibition reaches its midpoint. A high value points to weaker potency in that assay. With B2, the IC50 in data set [2] is about 0.002 nM; in data set [3], about 0.01 nM; in data set [4], about 0.03 nM.

B3: huMOV19-NTS#2-Linker1-Compound A (conjugate)
heavy: SVQLVQSGAEVVKPGASVKISCKASGYTFTGYFMNWVKQSPGQSLEWIGRIHPYDGDTFYNQKFQGKATLTVDKSSNTAHMELLSLTSEDFAVYYCTRYDGSRAMDYWGQGTTVTVSS[human IgG1 constant region left out here]
light: DIVLTQSPLSLAVSLGQPAIISCKASQSVSFAGTSLMHWYHQKPGQQPRLLIYRASNLEAGVPDRFSGSGSKTDFTLTISPVEAEDAATYYCQQSREYPYTFGGGTKLEIKRTVAAPSVFIFPPSDEQLKSGTASVVCLLNNFYPREAKVQWKVDNALQSGNSQESVTEQDSKDSTYSLSSTLTLSKADYEKHKVYACEVTHQGLSSPVTKSFNRGEC
For the molecule B3, the anti-tumor activity entry in data set [5] (single IV dose 25 μg/kg based on compound A) and in data set [5] (single IV dose 50 μg/kg based on compound A) was “highly active” throughout. The “antigen-independent potency of the two conjugates” value in data set [6] (KB cells, in the presence of 1 μM unconjugated huMOV19) is “nearly identical”.

B4: SeriMab-May: huMOV19-NTS#2 linked through the engineered N-terminal Ser (oxime) to maytansinoid MayNMA, two per antibody (conjugate)
heavy: SVQLVQSGAEVVKPGASVKISCKASGYTFTGYFMNWVKQSPGQSLEWIGRIHPYDGDTFYNQKFQGKATLTVDKSSNTAHMELLSLTSEDFAVYYCTRYDGSRAMDYWGQGTTVTVSS[human IgG1 constant region left out here]
light: DIVLTQSPLSLAVSLGQPAIISCKASQSVSFAGTSLMHWYHQKPGQQPRLLIYRASNLEAGVPDRFSGSGSKTDFTLTISPVEAEDAATYYCQQSREYPYTFGGGTKLEIKRTVAAPSVFIFPPSDEQLKSGTASVVCLLNNFYPREAKVQWKVDNALQSGNSQESVTEQDSKDSTYSLSSTLTLSKADYEKHKVYACEVTHQGLSSPVTKSFNRGEC
For the molecule B4, the “half-life of maytansine elimination” value in data set [7] is “approximately 17 days”. In data set [7] (plasma at 2 min, 1 day, 3 days), the “stability of oxime linkage in mouse circulation” value was “stable over 3 days”. The “potency compared with lysine-conjugate Ab-SMCC-DM1” value in data set [6] (KB cervical cancer cell line) is reported as “same potency”.
